Results published in PubChem BioAssay AID488969 (Vanderbilt High Throughput Screening Facility, 2010).
In all, about 110,000 compounds were measured (“z-score”: median about -0.1, highest 2% from about 2 on). This is one part of the list. Calls of active or inactive are those of the source.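 The calls were made as follows: active = z-score in the third read window above 3 or below -3; inactive = the rest.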

target: Metabotropic glutamate receptor 8 (Rattus norvegicus) (UniProt P70579); test: mGluR8 Gi/Go-coupled signaling modulation – cell-based, rat, thallium flux, HTS, primary screen (AID 488969); conditions: HEK293 rat mGluR8, GIRK (G protein-gated inwardly rectifying potassium channel) thallium flux, FluoZin2; at 10 µM; stronger effect = higher value; submaximal glutamate (EC20) added with thallium
Sequence of UniProt P70579 (P70579 whole entry, looked up): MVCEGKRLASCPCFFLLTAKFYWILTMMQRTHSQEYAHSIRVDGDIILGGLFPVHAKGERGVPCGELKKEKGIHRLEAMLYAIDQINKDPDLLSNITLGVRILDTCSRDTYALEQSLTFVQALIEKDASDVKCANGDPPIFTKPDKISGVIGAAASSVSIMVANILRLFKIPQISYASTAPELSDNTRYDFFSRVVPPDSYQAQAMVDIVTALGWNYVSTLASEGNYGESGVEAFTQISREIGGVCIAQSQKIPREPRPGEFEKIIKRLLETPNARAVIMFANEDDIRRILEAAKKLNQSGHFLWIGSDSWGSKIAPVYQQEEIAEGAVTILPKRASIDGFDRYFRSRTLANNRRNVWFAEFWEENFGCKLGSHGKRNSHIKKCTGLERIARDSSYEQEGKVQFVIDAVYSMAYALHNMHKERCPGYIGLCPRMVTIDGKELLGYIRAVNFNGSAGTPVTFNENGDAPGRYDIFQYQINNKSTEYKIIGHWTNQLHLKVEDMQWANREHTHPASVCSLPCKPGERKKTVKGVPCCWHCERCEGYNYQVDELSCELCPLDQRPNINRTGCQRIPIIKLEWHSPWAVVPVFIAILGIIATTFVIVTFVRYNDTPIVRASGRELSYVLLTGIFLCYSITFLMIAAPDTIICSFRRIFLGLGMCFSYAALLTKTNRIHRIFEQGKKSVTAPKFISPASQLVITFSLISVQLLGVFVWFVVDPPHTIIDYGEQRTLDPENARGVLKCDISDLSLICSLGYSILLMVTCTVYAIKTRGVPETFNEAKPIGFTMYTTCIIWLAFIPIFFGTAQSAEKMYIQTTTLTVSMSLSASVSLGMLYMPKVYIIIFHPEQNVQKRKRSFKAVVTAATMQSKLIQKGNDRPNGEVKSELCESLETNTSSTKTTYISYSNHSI

Row | SMILES | z-score
1 | COc1ccc(CC(=O)OCc2cc3ccc(C)cc3[nH]c2=O)cc1 | -0.459
2 | OC1C[N+]2(CCCCC2)C1 | -0.025
3 | O=C(O)c1ccc(N(c2ccccc2)c2ccccc2)cc1 | 0.0379
4 | COc1ccc(-c2cc(C(=O)Nc3cnn(Cc4ccccc4C)c3)no2)cc1OC | -0.425
5 | N#Cc1c(-c2ccco2)cc(-c2ccc(F)cc2)nc1N | 0.827
6 | COc1cccc(C(=O)O/N=C(\N)c2ccc([N+](=O)[O-])cc2)c1 | 0.0273
7 | COc1cc(S(=O)(=O)N2CCN(C)CC2)c(OC)cc1Br | 0.054
8 | O=C(COC(=O)/C=C/c1ccc(S(=O)(=O)N2CCCCCC2)cc1)NCc1ccccc1Cl | -0.0875
9 | CC1CCN(c2oc(Cc3cccc4ccccc34)nc2C#N)CC1 | -0.0445
10 | O=C1OCCC1Sc1nnc(-c2ccc(F)cc2)n1Cc1ccccc1 (stereo unspecified) | -0.224
11 | N#Cc1nc(-c2ccccc2Cl)oc1NCc1ccco1 | -0.953
12 | O=C(c1ccc(=O)[nH]c1)N(Cc1ccco1)C1(C(=O)NC2CCCC2)CCCCC1 | -0.226
13 | CCN(CC(=O)NCCc1ccccc1)S(=O)(=O)c1ccc(Br)cc1 | -0.166
14 | Cc1ccc(S(=O)(=O)CCC(=O)NCc2ccccc2)cc1 | -0.064
15 | CCOC(=O)CSc1nnc(CNC(=O)c2cccs2)n1-c1cc(OC)ccc1OC | -0.34
16 | O=S1(=O)CC(O)C(Nc2ccc(Cl)cc2)C1 (stereo unspecified) | 0.00894
17 | O=C1CN(C(=O)CCCc2c[nH]c3ccccc23)c2ccccc2N1 | -0.0819
18 | Cc1ccc(NC2CC(=O)N(CCc3ccccc3)C2=O)cc1 (stereo unspecified) | -1.86
19 | CCSCc1nnc(SCC(=O)Nc2nc3ccccc3s2)n1C | -0.202
20 | CCc1cc(C(=O)OC)c(NC(=O)CC2Sc3ccc(C(F)(F)F)cc3NC2=O)s1 (stereo unspecified) | -0.0252
21 | CC1=C(/C=N/Nc2ccc([N+](=O)[O-])cc2[N+](=O)[O-])C(C)(C)CCC1 | -0.388
22 | O=C(N/N=C/c1ccc[nH]1)c1ccccc1[N+](=O)[O-] | -0.104
23 | O=C(CN1CCCCC1)Nc1cccc(Br)c1 | 0.475

Row | SMILES | z-score
24 | COc1ccc(C(=O)Nc2ccc(Cl)c(S(=O)(=O)Nc3ccccc3OC)c2)cc1 | -0.653
25 | CCN(CC)C(=O)CC(c1ccccc1)c1ccco1 (stereo unspecified) | 0.0642
26 | O=C(NC(=S)NCCc1ccccc1)C1CCCCC1 | 0.986
27 | COc1cc(/C=N/Nc2nc3ccccc3[nH]2)cc(OC)c1O | -0.634
28 | O=C(Nc1ccc(-c2nc3ccccc3o2)cc1)c1cc(-n2cnnc2)ccc1Cl | 1.67
29 | CCOC(=O)C1CCN(CCC(=O)Nc2cccc(Cl)c2C)CC1 | 0.732
30 | O=C(OCc1ccc(Cl)c(Cl)c1)c1cnccn1 | -0.507
31 | O=C(NCCN1CCOCC1)c1cc2n(n1)C(C(F)(F)F)CC(c1ccc(F)cc1)N2 (stereo unspecified) | 0.155
32 | CCOC(=O)N1CCN(S(=O)(=O)c2ccc(OC)c(Cl)c2)CC1 | 0.678
33 | COc1cc2c(cc1OC)-c1cc(Nc3ccc4c(c3)OCCO4)nc(=O)n1CC2 | -1.37
34 | CNC(=O)CN1C(=O)CSc2ncccc21 | 0.227
35 | COP(=O)(OC)c1nc(-c2ccccc2)oc1N1CCOCC1 | -0.0566
36 | N#C/C(=C\c1c(N2CCOCC2)nc2ccccn2c1=O)S(=O)(=O)c1ccccc1 | 0.452
37 | COc1cccc2[nH]c3c(Cl)ncnc3c12 | 0.132
38 | COc1cccc(/C=N/NC(=O)c2csc(-n3nc(C)cc3C(F)(F)F)n2)c1 | 0.106
39 | CCN=C(Nc1ccc2c(c1)OCO2)SC1CC(=O)N(c2ccc(OC)cc2)C1=O (stereo unspecified) | -0.574
40 | CCOC(=O)c1c(NC(=O)c2ccccc2C)sc2c1CC(C)(C)OC2 | -0.332
41 | CCOC(=O)c1c(C)[nH]c(C)c1C(=O)CSc1nc2ccccc2c(=O)n1-c1ccc(Cl)cc1 | 0.08
42 | O=C(Nc1ccc(C(F)(F)F)cc1-c1ccccc1)c1ccccc1 | -0.107
43 | OC(c1cccc(OCc2ccccc2)c1)c1nnc(-c2ccccc2)o1 (stereo unspecified) | -1.11
44 | Cc1nc(SCC(=O)NCc2ccc(F)cc2)c2c(=O)n(C)c(=O)n(C)c2n1 | -0.598
45 | CC(=O)c1ccc(NC(=O)COC(=O)c2ccccc2Sc2ccccc2C#N)cc1 | 0.189
46 | COc1ccccc1CNC(=O)C(Cc1c[nH]c2ccccc12)NC(=O)OCc1ccccc1 (stereo unspecified) | -0.903

Row | SMILES | z-score
47 | CC(C)(C)n1cnc2cc(NS(=O)(=O)c3ccc(Br)cc3)ccc21 | -0.965
48 | CCCCNC(=O)CN1C(=O)NC2NC(=O)NC21 (stereo unspecified) | 0.25
49 | CCc1c(O)c(/C(C)=N\O)c(=O)n(-c2ccccc2)c1-c1ccccc1 | -0.396
50 | O=S(=O)(c1cccs1)N1CCN(c2ccccn2)CC1 | 0.146
51 | Cn1cccc1CC(=O)N/N=C/c1cccc2ccccc12 | -0.261
52 | CC1CCCCN1C(=O)Cc1ccc(F)cc1 (stereo unspecified) | 0.287
53 | COc1ccc(C(=O)N/C(=C\c2ccco2)C(=O)NCCCn2ccnc2)cc1 | -0.12
54 | CC(=O)Nc1ccc(-c2nc(C)c(C(C)=O)n2O)cc1 | -0.0847
55 | Cc1cc(OC(=O)c2ccccc2Br)cc(=O)n1C | -0.659
56 | COc1ccc(NC(=O)C2OCCc3ccccc32)c(OC)c1 (stereo unspecified) | 0.252
57 | O=C(OC(C(=O)O)C(OC(=O)c1ccccc1)C(=O)NCc1ccccc1)c1ccccc1 (stereo unspecified) | 0.0339
58 | Cc1cccc(C(=O)Nc2ccccc2-c2nnn(CC(=O)Nc3ccc4c(c3)OCCO4)n2)c1 | -0.78
59 | O=C1CC(c2ccc3c(c2)OCO3)c2cc3c(cc2N1)OCO3 (stereo unspecified) | -0.0249
60 | Oc1[nH]c(=S)sc1/C=C1\C(c2ccccc2)=Nc2ccccc21 | -0.0895
61 | CS(=O)(=O)N(Cc1ccccc1)c1ccc(C(=O)NCc2cccnc2)cc1 | -0.23
62 | OCc1nc2ccccc2n1CC(O)Cn1ccc2ccccc21 (stereo unspecified) | 0.578
63 | COc1cc(CNCc2ccccn2)ccc1OCc1cccc(Cl)c1 | -0.00558
64 | Cc1c(C)n(CC(O)CN2C(=O)c3ccccc3S2(=O)=O)c2ccccc12 (stereo unspecified) | 0.15
65 | C[n+]1c2n(c3ccccc31)N=C(c1ccccc1)CS2 | -0.215
66 | O=C(OCn1ncc(Br)c(Br)c1=O)c1ccc(F)cc1 | -2.36
67 | Cc1ccccc1OCCOc1ccccc1C=C(C#N)C#N | -0.0486
68 | Cc1cc(NCCCn2ccnc2)n2c(nc3ccccc32)c1C#N | -0.361
69 | Cc1cccc(N2C(=O)CC(Sc3nc(-c4ccccc4)c4cc(Cl)ccc4n3)C2=O)c1 (stereo unspecified) | -0.887

Row | SMILES | z-score
70 | COc1ccc(CCNC(=O)CCn2c(SCC#N)nc3ccccc3c2=O)cc1OC | -0.0568
71 | CCOC(=O)C1C(=O)OC2(CCCCC2)C1C(=O)OCC (stereo unspecified) | 0.124
72 | COc1ccccc1C1N(c2ccc(Cl)cc2)C(=O)C2CCCN21 (stereo unspecified) | -0.39
73 | CCOC(=O)c1c(C)[nH]c(O)c1C=Nc1ccc(C(F)(F)F)cc1 | -0.104
74 | O=C(CSc1nnc(Cn2nnc3ccccc32)o1)N(Cc1ccc(Cl)cc1)c1ccccc1 | -0.17
75 | O=C(NN=c1c(=O)c2ccccc2c1=O)c1ccccc1 | active: 6.47
76 | Nc1nonc1-c1nc2ccccc2n1Cc1ccccc1 | 0.128
77 | S=C(NCc1cccs1)Nc1cccc(Cl)c1 | active: 4.52
78 | Cc1ccc(C(=O)NCC(=O)OCC(=O)Nc2ncc(C(F)(F)F)cc2Cl)cc1 | -0.464
79 | C=CCn1c(C)cc(-c2csc(N)n2)c1C | 0.0849
80 | O=C(O)C(=O)/C(=C\c1ccccc1)c1ccc2ccccc2n1 | 0.0525
81 | O=C(c1cc2ccccc2oc1=O)N(Cc1cccs1)Cc1ccccc1Cl | 0.00762
82 | COC(=O)c1onc(-c2c(OC)cc(OC)cc2OC)c1C(=O)OC | 0.522
83 | Nc1nc(SCc2ccc3c(c2)OCCO3)n[nH]1 | -0.365
84 | Cc1cccc(NC(=S)N2CCN(C(=O)C3CCCO3)CC2)c1 (stereo unspecified) | -0.319
85 | Cn1nc(-c2ccccc2)c(C#N)c1Sc1cccc(Cl)c1 | 0.228
86 | Cc1ccc(OCCN2CCN(C(=O)CCC(=O)Nc3nnc(C(C)C)s3)CC2)cc1 | 0.375
87 | CCc1nc2ccccc2n1CCC(C)C | -0.198
88 | Cc1cc2nc(C3CCCN(C(=O)NCc4ccccc4)C3)[nH]c2cc1C (stereo unspecified) | -0.155
89 | COc1ccc(S(=O)(=O)NC(C)(C)C)cc1-c1nnc2c3ccccc3c(C)nn12 | -0.649
90 | Cc1ccc(C(=O)NN(CCC(=O)NC(C)(C)C)C2=NS(=O)(=O)c3ccccc32)cc1 | -0.226
91 | COc1ccccc1-c1nc(C#N)c(N2CCN(Cc3ccccc3)CC2)o1 | 0.0931
92 | CCOc1ccc(OCCOCCOc2ccccc2Cl)cc1 | -0.132

Row | SMILES | z-score
93 | CCNC(=S)N(Cc1ccc(OC)cc1)C1CC(=O)N(c2ccc(OCC)cc2)C1=O (stereo unspecified) | -0.0409
94 | CCOC(=O)c1ccccc1NC1c2ccccc2C(=O)N1C1CCN(C(=O)OCC)CC1 (stereo unspecified) | -0.69
95 | Cn1c(NC(=O)CCC2CCCCC2)cc(=O)n(C)c1=O | -0.0709
96 | Cc1ccc(OC(C)C(=O)O)cc1C (stereo unspecified) | 0.126
97 | COc1ccc(OC)c(C(=O)COC(=O)CNC(=O)C2CCCCC2)c1 | 0.127
98 | Cc1ccccc1Nc1nnc(C)c(=O)[nH]1 | 0.0115
99 | Brc1ccc2ncnc(Nc3ccc(N4CCOCC4)cc3)c2c1 | -0.207
100 | COc1ccc(-n2c(CNc3ccc(C)cc3)nnc2SCC(=O)Nc2nc(-c3ccccc3)cs2)cc1 | 0.133
101 | COc1ccc(C(CC(=O)c2ccc(O)cc2)S(=O)(=O)c2ccc(C)cc2)cc1 (stereo unspecified) | -0.254
102 | CC12CC(NC(=O)N1c1cccc(C(=O)N3CCN(c4ccccc4)CC3)c1)c1ccccc1O2 (stereo unspecified) | -0.354
103 | Cc1cc(NC(=O)c2noc3c2CCCCC3)no1 | 0.114
104 | CCN1C(=O)/C(=C\N2CCCc3ccccc32)SC1=S | -0.289
105 | Cc1cc(NC(=O)Cc2ccccc2)nc2c1c(=O)oc1ccccc12 | -0.184
106 | O=[N+]([O-])c1cccnc1N1CCOCC1 | 0.0447
107 | COc1ccc(-c2nnc3sc(CCN4C(=O)c5ccccc5C4=O)nn23)cc1 | -0.591
108 | CCOc1ccc(S(=O)(=O)N2CCCCC2)c2ccccc12 | 0.294
109 | Cc1ccc(N(CC(=O)Nc2c(C)n(C)n(-c3ccccc3)c2=O)S(C)(=O)=O)cc1C | 0.205
110 | Cc1ccccc1NC(=O)c1c(C)[nH]c(=S)c(C#N)c1-c1ccco1 | -0.529
111 | COc1ccc(Cc2nnc(SCc3nc4ccccc4c(=O)[nH]3)o2)cc1 | 0.393
